Results published in paper PMC4336329 (PLoS ONE, 2015).
In all, about 310,000 compounds went through this assay and about 2,200 (0.71%) showed an effect of 50% or more. Effects have a minus sign here. This is one part of the list.

target: human ether-à-go-go-related gene (hERG) potassium channel (human, UniProt Q12809); test: primary screen, population patch clamp on CHO cells stably expressing hERG
Sequence (Q12809 whole entry, looked up): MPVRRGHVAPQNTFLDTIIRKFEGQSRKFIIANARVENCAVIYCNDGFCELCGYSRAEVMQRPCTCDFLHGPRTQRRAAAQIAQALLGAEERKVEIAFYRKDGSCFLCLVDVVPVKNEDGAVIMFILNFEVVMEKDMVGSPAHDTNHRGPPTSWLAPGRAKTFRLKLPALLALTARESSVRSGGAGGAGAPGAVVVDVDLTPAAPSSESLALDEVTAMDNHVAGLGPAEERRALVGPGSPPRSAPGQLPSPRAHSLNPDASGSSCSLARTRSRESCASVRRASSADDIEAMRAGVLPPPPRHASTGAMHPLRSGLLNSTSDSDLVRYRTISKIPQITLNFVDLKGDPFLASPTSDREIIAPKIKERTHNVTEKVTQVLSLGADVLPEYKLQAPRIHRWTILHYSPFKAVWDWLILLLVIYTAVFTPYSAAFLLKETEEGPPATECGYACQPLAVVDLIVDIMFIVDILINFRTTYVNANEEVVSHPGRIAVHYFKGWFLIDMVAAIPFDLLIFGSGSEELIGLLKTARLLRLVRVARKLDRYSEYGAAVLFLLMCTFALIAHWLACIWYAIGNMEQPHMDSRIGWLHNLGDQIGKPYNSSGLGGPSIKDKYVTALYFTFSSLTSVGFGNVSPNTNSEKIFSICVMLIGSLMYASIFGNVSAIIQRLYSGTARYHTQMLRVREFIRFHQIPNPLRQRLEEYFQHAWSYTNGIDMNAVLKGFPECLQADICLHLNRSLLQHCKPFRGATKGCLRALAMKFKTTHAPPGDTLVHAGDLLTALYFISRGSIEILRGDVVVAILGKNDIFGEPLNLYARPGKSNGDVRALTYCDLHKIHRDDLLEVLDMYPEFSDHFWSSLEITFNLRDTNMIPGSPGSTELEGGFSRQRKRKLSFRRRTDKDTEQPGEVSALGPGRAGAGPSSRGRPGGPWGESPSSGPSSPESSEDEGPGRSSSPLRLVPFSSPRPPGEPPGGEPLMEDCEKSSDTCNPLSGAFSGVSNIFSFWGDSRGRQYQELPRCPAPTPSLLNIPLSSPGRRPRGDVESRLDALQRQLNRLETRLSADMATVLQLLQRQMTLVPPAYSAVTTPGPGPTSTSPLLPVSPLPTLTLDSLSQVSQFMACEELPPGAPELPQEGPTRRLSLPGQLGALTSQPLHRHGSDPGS

| SMILES | hERG current change (%, negative = inhibition) at 1uM [%] |
| --- | --- |
| CCCC1(c2ccccc2)NC(=O)N(CC(=O)N(C)Cc2c(F)cccc2Cl)C1=O (stereo not drawn) | 15 |
| O=C(O)Cc1ccc(C(=O)c2cccs2)s1 | 13.8 |
| COc1ccc(S(=O)(=O)N(CC(=O)NC2CC2)c2ccc(C)cc2)cc1 | 6.87 |
| CN(CCO)c1cc(Sc2nc3ccccc3s2)c2nonc2c1[N+](=O)[O-] | 14.6 |
| O=C1NC(=O)/C(=C\c2ccccc2OCc2ccccc2)S1 | 27.2 |
| COc1ccc(OC)c(NC(=O)CSc2nnc(-c3ccco3)n2-c2ccccc2)c1 | 12 |
| CCn1ncc(N2CCOCC2)c(Cl)c1=O | 11.9 |
| C=CCOc1ccccc1CNc1ccccc1C | 14.9 |
| CC(C)OC(=O)CSc1nnc(-c2ccc(Cl)cc2)n1N | 8.72 |
| Cc1ccccc1NC(=O)Cc1nnc(SCC(=O)N2CCN(c3ccccc3)CC2)n1C | 5.87 |
| CCN(CC)C(=O)c1ccc(COc2ccc(Cl)c(C)c2)o1 | 9.22 |
| Cc1ccc(S(=O)(=O)Nc2ccccc2C(=O)N2CCCC2)cc1 | 13.2 |
| CCOc1ccc(NC(=O)C(CC(=O)O)Cc2ccc(C)cc2)cc1 (stereo not drawn) | 12.3 |
| COc1ccc(/C=C/c2nnc(NC(C)=O)s2)cc1 | 10 |
| CSCCC(NC(=O)c1ccccc1Cl)C(=O)N(C)Cc1cccs1 (stereo not drawn) | 5.83 |
| CCOc1ccccc1NC(=O)Cn1nnc(C(=O)NCCc2ccc(OCC)c(OCC)c2)c1N | 5.66 |
| COc1cccc(CNC(=O)C2CCN(S(=O)(=O)c3ccc4c(c3)OCCO4)CC2)c1 | 8.44 |
| CCC(=O)Nc1nnc(S(=O)(=O)N(C)c2ccccc2)s1 | 14.7 |
| CCN(CC)c1ccc(N2C(=O)/C(=C/c3cccs3)SC2=S)cc1 | 17.9 |

| SMILES | hERG current change (%, negative = inhibition) at 1uM [%] |
| --- | --- |
| O=C(N/N=C/c1cccnc1)c1ccc(O)cc1 | 14.4 |
| CCCN(CC(=O)Nc1ccccc1OC)C(=O)CN1C(=O)NC2(CCCCC2)C1=O | 2.92 |
| COc1ccc(C(=O)NN=C(Cc2ccccc2)Cc2ccccc2)cc1OC | 12.3 |
| CCn1ncc(Br)c1C(=O)Nc1c(C)nn(Cc2c(F)c(F)c(F)c(F)c2F)c1C | 8.85 |
| O=C(c1cnc2n(c1=O)CCS2)N(C1CCCCC1)C1CCCCC1 | 5.05 |
| Cc1cc(NC(NC(=O)c2ccco2)(C(F)(F)F)C(F)(F)F)no1 | -1.76 |
| Cc1cc(C)cc(C(=O)N2CC(=O)Nc3ccccc32)c1 | -0.28 |
| CCOc1ccccc1N1CC(C(=O)N2CCc3ccccc3C2)CC1=O (stereo not drawn) | 4.47 |
| CSc1ncccc1C(=O)OCC(=O)NC1CCS(=O)(=O)C1 (stereo not drawn) | 11.9 |
| CCNC(=S)NNC(=O)c1cccs1 | 17 |
| COc1ccc(CC(=O)Nc2ccc(N3CCCCC3)cc2)cc1 | 9.17 |
| CCc1ccc(NC(=S)N(CCN(C)C)C(C)c2ccncc2)cc1 (stereo not drawn) | 5.53 |
| CCOC(=O)C1(CC2CCCCO2)CCN(Cc2cn[nH]c2-c2cccc(F)c2)CC1 (stereo not drawn) | -27.2 |
| Cc1ccc(OCC(=O)N2CCN(Cc3ccc4c(c3)OCO4)CC2)cc1C | -7.31 |
| CN(c1ccccc1C(=O)Nc1cccc([N+](=O)[O-])c1)S(C)(=O)=O | 6.13 |
| O=C(c1cccc([N+](=O)[O-])c1)N1CCCC(C(=O)N2CCCCC2)C1 (stereo not drawn) | 11 |
| CCn1cc(C(=O)N2CCc3ccccc32)c(=O)c2cc(S(=O)(=O)N3CC(C)CC(C)C3)ccc21 (stereo not drawn) | 3.81 |
| COc1ccc(OC)c2c1sc(=NC(=O)C1CC1)n2C | 0.784 |
| CCC(=O)N1CCCc2ccccc21 | 17.1 |

| SMILES | hERG current change (%, negative = inhibition) at 1uM [%] |
| --- | --- |
| COc1ccc(Cc2nnc(N=Nc3c(O)[nH]c4ccc(Br)cc34)[nH]c2=O)cc1 | 1.07 |
| CC(C)Oc1ccc(C2CC(=O)NC2=O)cc1 (stereo not drawn) | 1.07 |
| COc1ccc(-c2cc3ccc(OC)cc3cn2)cc1 | 9.93 |
| CCc1ccc(CN(C)CC(O)COc2cccc3ccccc23)cc1 (stereo not drawn) | 11.4 |
| CCc1ccc(CNC(=O)C2CCCN(c3nnc(C)c4c(C)n(-c5ccccc5)nc34)C2)cc1 (stereo not drawn) | 15.9 |
| CC1CN(C(=S)NC2CCCC2)CC(C)O1 (stereo not drawn) | 8.34 |
| CCn1c2ccccc2c2cc(NC(=O)CN(C)CC(=O)Nc3ccc(N4CCOCC4)cc3)ccc21 | 13.8 |
| CCn1c(=O)c2cc(S(=O)(=O)NCc3ccccc3)ccc2n(CC)c1=O | 12 |
| CCOC(=O)c1ccc(NC(=S)N2CCCC2)cc1 | 13 |
| CC(=O)NS(=O)(=O)c1ccc(NC(=O)COc2ccc(C(=O)c3ccccc3)cc2)cc1 | 17.6 |
| COc1ccc(S(=O)(=O)N(C)c2ccc(C(=O)NCC3CCCO3)cc2)cc1 (stereo not drawn) | 4.95 |
| COc1ccccc1NC(=O)C(=O)NCC1CCCN1S(=O)(=O)c1cccs1 (stereo not drawn) | 5.9 |
| COc1cc(NC(=O)COc2ccc(-n3cnnn3)cc2)c(OC)cc1Cl | -1.21 |
| Cn1c(N2CCOCC2)c(/C=N/O)c2ccccc21 | -10.5 |
| COc1cc(C(=O)N(Cc2ccc(C)o2)C2CCS(=O)(=O)C2)cc(OC)c1OC (stereo not drawn) | 9.59 |
| OCCOCCNc1ncnc2c1c(-c1ccccc1)cn2-c1ccccc1 | -10.8 |
| COC(=O)[C@]1(CC(C)C)N[C@H](c2ccc(-c3ccc(OC)cc3)cc2)[C@@H]2C(=O)N(C)C(=O)[C@@H]21.O=C(O)C(F)(F)F | 1.8 |
| Cc1ccc(S(=O)(=O)N2CCN(C(=O)COC(=O)/C=C/c3ccccc3F)CC2)c(C)c1 | 19.2 |
| COc1ccc(N(CC(O)CN2CCCCC2)S(=O)(=O)c2ccc(C)cc2)cc1 (stereo not drawn) | -82.9 |
